From the supplement of paper PMC8728848
Some of the results follow.

Key:
Assay in all cases: glycan array binding signal (z-score within array); higher = stronger binding
Details in all cases: glycan notation: IUPAC condensed, linker removed
[1] = target: Fuc(a1-2)[GalNAc(a1-3)]Gal(b1-4)GlcNAc(b1-3)GalNAc
Outline: (§1)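 Glycan array data were curated from 3228 arrays in the Consortium for Functional Glycomics database and kept only where the protein sequence was available. Glycan names were converted to IUPAC-condensed notation, and columns mapping to the same glycan were averaged. The binding signal is a within-array Z-score, averaged across arrays of the same protein sequence at different concentrations or buffers and across linkers. Negative Z-scores can be read as non-binding.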

[2] = target: Fuc(a1-2)[GalNAc(a1-3)]Gal(b1-4)GlcNAc(b1-3)[Fuc(a1-2)[GalNAc(a1-3)]Gal(b1-4)GlcNAc(b1-6)]GalNAc
Outline: as §1

[3] = target: Fuc(a1-2)[GalNAc(a1-3)]Gal(b1-4)GlcNAc(b1-6)GalNAc
Outline: as §1

[4] = target: Fuc(a1-2)[GalNAc(a1-3)]Gal(b1-4)[Fuc(a1-3)]GlcNAc
Outline: as §1

[5] = target: Fuc(a1-2)[GalNAc(a1-3)]Gal(b1-4)[Fuc(a1-3)]GlcNAc(b1-3)GalNAc
Outline: as §1

[6] = target: Fuc(a1-2)[GalNAc(a1-4)]Gal(b1-4)GlcNAc
Outline: as §1

[7] = target: Fuc(a1-2)[GalNAc(b1-3)]Gal
Outline: as §1

[8] = target: Fuc(a1-3)GlcNAc
Outline: as §1

[9] = target: Fuc(a1-3)[Gal(b1-4)]Glc6S
Outline: as §1

[10] = target: Fuc(a1-3)[Gal(b1-4)]GlcNAc
Outline: as §1

[11] = target: Fuc(a1-3)[Gal(b1-4)]GlcNAc(b1-2)Man
Outline: as §1

[12] = target: Fuc(a1-3)[Gal(b1-4)]GlcNAc(b1-2)Man(a1-3)[Fuc(a1-3)[Gal(b1-4)]GlcNAc(b1-2)Man(a1-6)]Man(b1-4)GlcNAc(b1-4)GlcNAc
Outline: as §1

[13] = target: Fuc(a1-3)[Gal(b1-4)]GlcNAc(b1-2)Man(a1-3)[Fuc(a1-3)[Gal(b1-4)]GlcNAc(b1-2)Man(a1-6)]Man(b1-4)GlcNAc(b1-4)[Fuc(a1-6)]GlcNAc
Outline: as §1

[14] = target: Fuc(a1-3)[Gal(b1-4)]GlcNAc(b1-3)Gal(b1-3)[Fuc(a1-4)]GlcNAc
Outline: as §1

[15] = target: Fuc(a1-3)[Gal(b1-4)]GlcNAc(b1-3)Gal(b1-4)[Fuc(a1-3)]GlcNAc
Outline: as §1

[16] = target: Fuc(a1-3)[Gal(b1-4)]GlcNAc(b1-3)Gal(b1-4)[Fuc(a1-3)]GlcNAc(b1-3)Gal(b1-4)[Fuc(a1-3)]GlcNAc
Outline: as §1

[17] = target: Fuc(a1-3)[Gal(b1-4)]GlcNAc(b1-3)GalNAc
Outline: as §1

[18] = target: Fuc(a1-3)[Gal(b1-4)]GlcNAc(b1-4)Gal(b1-4)[Fuc(a1-3)]GlcNAc
Outline: as §1

[19] = target: Fuc(a1-3)[Gal(b1-4)]GlcNAc(b1-4)Gal(b1-4)[Fuc(a1-3)]GlcNAc(b1-4)Gal(b1-4)[Fuc(a1-3)]GlcNAc
Outline: as §1

[20] = target: Fuc(a1-3)[Gal(b1-4)]GlcNAc(b1-6)GalNAc
Outline: as §1

[21] = target: Fuc(a1-3)[Gal(b1-4)]GlcNAc(b1-6)[Gal(b1-3)GlcNAc(b1-3)]Gal(b1-4)Glc
Outline: as §1

[22] = target: Fuc(a1-3)[Gal(b1-4)]GlcNAc6S
Outline: as §1

[23] = target: Fuc(a1-3)[Gal3S(b1-4)]Glc
Outline: as §1

[24] = target: Fuc(a1-3)[Gal3S(b1-4)]Glc6S
Outline: as §1

[25] = target: Fuc(a1-3)[Gal3S(b1-4)]GlcNAc
Outline: as §1

[26] = target: Fuc(a1-3)[Gal3S(b1-4)]GlcNAc6S
Outline: as §1

[27] = target: Fuc(a1-3)[GalNAc(b1-4)]Gal(b1-4)GlcNAc
Outline: as §1

[28] = target: Fuc(a1-3)[GalNAc(b1-4)]GlcNAc
Outline: as §1

[29] = target: Fuc(a1-3)[GalNAc(b1-4)]GlcNAc6S
Outline: as §1

[30] = target: Fuc(a1-4)GlcNAc
Outline: as §1

[31] = target: Fuc(b1-3)GlcNAc
Outline: as §1

[32] = target: Gal(a1-2)Gal
Outline: as §1

[33] = target: Gal(a1-3)Gal
Outline: as §1

[34] = target: Gal(a1-3)Gal(b1-3)Glc
Outline: as §1

[35] = target: Gal(a1-3)Gal(b1-3)GlcNAc
Outline: as §1

[36] = target: Gal(a1-3)Gal(b1-3)GlcNAc(b1-2)Man
Outline: as §1

[37] = target: Gal(a1-3)Gal(b1-3)GlcNAc(b1-2)Man(a1-3)[Gal(a1-3)Gal(b1-3)GlcNAc(b1-2)Man(a1-6)]Man(b1-4)GlcNAc(b1-4)GlcNAc
Outline: as §1

[38] = target: Gal(a1-3)Gal(b1-3)GlcNAc(b1-3)GalNAc
Outline: as §1

[39] = target: Gal(a1-3)Gal(b1-3)GlcNAc(b1-6)GalNAc
Outline: as §1

[40] = target: Gal(a1-3)Gal(b1-3)[Fuc(a1-4)]GlcNAc(b1-2)Man(a1-3)[Gal(a1-3)Gal(b1-3)[Fuc(a1-4)]GlcNAc(b1-2)Man(a1-6)]Man(b1-4)GlcNAc(b1-4)GlcNAc
Outline: as §1

[41] = target: Gal(a1-3)Gal(b1-4)Glc
Outline: as §1

[42] = target: Gal(a1-3)Gal(b1-4)GlcNAc
Outline: as §1

[43] = target: Gal(a1-3)Gal(b1-4)GlcNAc(b1-2)Man
Outline: as §1

[44] = target: Gal(a1-3)Gal(b1-4)GlcNAc(b1-2)Man(a1-3)[Gal(a1-3)Gal(b1-4)GlcNAc(b1-2)Man(a1-6)]Man(b1-4)GlcNAc(b1-4)GlcNAc
Outline: as §1

[45] = target: Gal(a1-3)Gal(b1-4)GlcNAc(b1-3)GalNAc
Outline: as §1

B1: XL-35 (Xenopus laevis) (protein)
chain: MLVHILLLLVTGGLSQSCDPVVIVASKNMVKQLDCDKFRNCKEIKDSNEEAQDGIYTLTSPDGISYQTFCDMTTNGGGWTLVASVHENNMAGKCTIGDRWSSQQGNRADYPEGDGNWANYNTFGSAGGATSDDYKNPGYYDIEAYNLGVWHVPNKTPLSVWRNSSLQRYRTTDGILFKHGGNLFSLYRIYPVKYGIGSCSKDSGPTVPVVYDLGSANLTASFYSPGFRSQFTPGYIQFRPINTEKAALALCPGMKMESCNVEHVCIGGGGYFPEADPRQCGDFAAYDFNGYGTKKFNSAGIEITEAAVLLFYL
For B1, the “glycan array binding signal (z-score)” value [1] was -0.308, the “glycan array binding signal (z-score)” value [2] was -0.349 and the “glycan array binding signal (z-score)” value [3] was -0.235. For the same binder, the “glycan array binding signal (z-score)” value [4] was -0.115, the “glycan array binding signal (z-score)” value [5] was 20.3 and the “glycan array binding signal (z-score)” value [6] was -0.131. The “glycan array binding signal (z-score)” value [7] was -0.349, the “glycan array binding signal (z-score)” value [8] was -0.189 and the “glycan array binding signal (z-score)” value [9] was 0.226. The “glycan array binding signal (z-score)” value [10] was -0.041, the “glycan array binding signal (z-score)” value [11] was 0.263 and the “glycan array binding signal (z-score)” value [12] was 0.205. For the same binder, the “glycan array binding signal (z-score)” value [13] was -0.035, the “glycan array binding signal (z-score)” value [14] was -0.053 and the “glycan array binding signal (z-score)” value [15] was -0.347. For the same binder, the “glycan array binding signal (z-score)” value [16] was -0.364, the “glycan array binding signal (z-score)” value [17] was 0.349 and the “glycan array binding signal (z-score)” value [18] was -0.062. The “glycan array binding signal (z-score)” value [19] was -0.1, the “glycan array binding signal (z-score)” value [20] was -0.005 and the “glycan array binding signal (z-score)” value [21] was -0.647. The “glycan array binding signal (z-score)” value [22] was 0.114, the “glycan array binding signal (z-score)” value [23] was -0.097 and the “glycan array binding signal (z-score)” value [24] was -0.08. The “glycan array binding signal (z-score)” value [25] was -0.084, the “glycan array binding signal (z-score)” value [26] was -0.029 and the “glycan array binding signal (z-score)” value [27] was -0.08. For the same binder, the “glycan array binding signal (z-score)” value [28] was 6.12, the “glycan array binding signal (z-score)” value [29] was -0.423 and the “glycan array binding signal (z-score)” value [30] was 0.476. The “glycan array binding signal (z-score)” value [31] was 0.051, the “glycan array binding signal (z-score)” value [32] was -0.152 and the “glycan array binding signal (z-score)” value [33] was 0.019. For the same binder, the “glycan array binding signal (z-score)” value [34] was 2.36, the “glycan array binding signal (z-score)” value [35] was -0.289 and the “glycan array binding signal (z-score)” value [36] was -0.202. The “glycan array binding signal (z-score)” value [37] was -0.081, the “glycan array binding signal (z-score)” value [38] was -0.401 and the “glycan array binding signal (z-score)” value [39] was -0.14. The “glycan array binding signal (z-score)” value [40] was 0.5, the “glycan array binding signal (z-score)” value [41] was 0.121 and the “glycan array binding signal (z-score)” value [42] was -0.137. The “glycan array binding signal (z-score)” value [43] was -0.373, the “glycan array binding signal (z-score)” value [44] was 0.152 and the “glycan array binding signal (z-score)” value [45] was -0.045.
